# Laboratory results from PubChem BioAssay AID686978 (National Center for Advancing Translational Sciences (NCATS), 2013).
# About 64,000 (15%) of roughly 420,000 compounds were called active. The shares of active, inactive and inconclusive entries below differ from those in the screen. The call rests on the fitted dose curve; in most records, active means well fitted inhibition curve with a large enough effect; inconclusive means small, poorly fitted or top-dose-only effect; inactive means flat fitted curve, though single readings scatter. No potency is given beside an inconclusive call; the fits are too rough.
# Test: qHTS for Inhibitors of human tyrosyl-DNA phosphodiesterase 1 (TDP1): qHTS in cells in absence of CPT; further: nearly all actives have a fitted effect of over 55% in size
# Conditions: DT40 Tdp1-/- hTDP1 cells, no CPT, ATP luminescence, 48 h; activity change, negative = growth inhibition: at 46.2 µM (top of the series) unless noted
# Outline: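 DT40 Tdp1-/-;hTDP1 cells, no CPT (DMSO vehicle only), 400 cells/well; compounds pin-transferred; ≥48 hr, 37 °C; CellTiter-Glo 30 min RT dark, luminescence read.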
# On the % scale 0 is the no-effect control and ±100 the full control effect; potency means the concentration at half of the fitted maximal effect; tags describe the fitted curve by direction and shape.
SMILES,"activity change, negative = growth inhibition",Potency
COc1ccc(NC(=O)c2sc3nc4c(cc3c2N)CN(Cc2ccccc2)CC4)cc1,inactive: 2.14%,
CC1CCC(NC(=O)C2(C)Cc3ccccc3C(=O)N2Cc2ccc(F)cc2)CC1 (stereo not given),,"inconclusive [inhibitor, single point]"
COc1ccccc1CN(C(=O)c1ccco1)C(C(=O)NC1CCCC1)c1ccncc1 (stereo not given),,"inconclusive [inhibitor, single point]"
COc1ccc(C(=O)NCCc2sc(-c3ccc(F)cc3)nc2C)cc1OC,,active: 14.6 µM
CCOC(=O)/C(C#N)=C/c1c(N2CCN(C)CC2)nc2c(C)cccn2c1=O,inactive: 20.2%,
CCc1ccc(C2Sc3ccccc3NC3=C2C(=O)c2ccccc23)cc1 (stereo not given),,"inconclusive [inhibitor, single point]"
COc1ccc(N2CCN(c3nc4c(C)cccn4c(=O)c3C=C(C#N)C#N)CC2)cc1,,"inconclusive [inhibitor, partial curve]"
CCCc1nc2ccc(C)cn2c1Cc1cccc(F)c1,,"inconclusive [inhibitor, single point]"
COc1ccc(OCC(O)CNC(C)c2ccccc2)cc1 (stereo not given),,"inconclusive [inhibitor, single point]"
Cc1cc(Br)cn2c(Cc3ccccc3C(F)(F)F)c(-c3cccc(Br)c3)nc12,inactive: -16.7%,
CC(C)(C)CC(=O)NCc1cccs1,inactive: 10.8%,
CC1=CC(=C(C#N)c2nc3ccccc3s2)C=C(C)N1Cc1ccco1,,"inconclusive [inhibitor, single point]"
C=CCSc1nnc2nc3c(nn12)c1cc(C)ccc1n3CC=C,,"inconclusive [inhibitor, single point]"
C[C@H](CO)N1C[C@H](C)[C@H](CN(C)C(=O)c2ccccc2)OCc2cnnn2CCCC1=O,inactive: 8.08%,
O=C(NCC(c1ccc(Cl)cc1)N1CCCCC1)c1ccc(F)cc1 (stereo not given),,active: 13 µM
COc1ccccc1C(=O)Nc1ccc(C(=O)c2ccccc2)cc1,,"inconclusive [inhibitor, partial curve]"
Oc1ccc(-c2nnc(Nc3ccccc3)c3ccccc23)cc1,inactive: 13.6%,
COc1ccc(C(=O)NCC(c2cccnc2)N2CCN(c3ccc(F)cc3)CC2)cc1 (stereo not given),,active: 10.3 µM
COc1c(Br)cc(Br)cc1C(=O)Nc1ccccc1N1CCCC1,,"inconclusive [inhibitor, single point]"
Cc1ccccc1NC(=S)NCc1cccs1,,"inconclusive [inhibitor, single point]"
O=C(NCCC1=CCCCC1)C1CCC(CNc2c(N3CCCCC3)c(=O)c2=O)CC1 (stereo not given),,"inconclusive [inhibitor, single point]"
Cc1ccc2[nH]cc(CCNC(=O)/C=C/c3ccco3)c2c1,,"inconclusive [inhibitor, partial curve, poor fit]"
O=C(N/N=C/c1cccc(Br)c1)C1CC(=O)N(c2ccccc2)C1 (stereo not given),inactive: -0.13%,
CCN(CC)C(=O)C1=C(C)N(Cc2ccc(F)cc2)C(=O)C(CC(=O)NCC2CCCCC2)C1 (stereo not given),,active: 20.6 µM

SMILES,"activity change, negative = growth inhibition",Potency
CC(=O)Nc1nonc1NC(C)=O,inactive: -11.4%,
COc1cccc(-c2cc(C(F)(F)F)nc(-n3nc(C)c(Br)c3C)n2)c1,,"inconclusive [inhibitor, single point]"
CCc1c(O)nc(SCC(=O)Nc2nc3ccccc3s2)n(C2CCCCC2)c1=O,inconclusive: -31.9% [inhibitor],
COc1ccc([N+](=O)[O-])c(OC)c1C(=O)NC(=O)Nc1nc(C)nc(C)n1,inactive: 22.2%,
CC1CC(C)CN(C(=O)CSc2nnc(CSc3ncccn3)n2C)C1 (stereo not given),inactive: -7.34%,
CCCCOc1cccc(C(=O)N(Cc2ccco2)C2CCS(=O)(=O)C2)c1 (stereo not given),,"inconclusive [inhibitor, single point]"
c1ccc(-c2nn3c(Cn4nnc5ccccc54)nnc3s2)nc1,inconclusive: -31.9% [inhibitor],
COc1ccc(-c2ccc(CN3C(C(C)C)C(=O)N(Cc4cn(CCC5OCCO5)nn4)CCS3(=O)=O)cc2)cc1OC (stereo not given),inactive: -9.36%,
O=C(OCC(=O)N1CCOCC1)c1cccc(S(=O)(=O)Nc2ccc(F)cc2)c1,inactive: -15.8%,
O=C1C2C(C(=O)N1c1ccncc1)C1C=CC2C12CC2 (stereo not given),inactive: -19.2%,
CCN(CC(=O)Nc1cc(Cl)ccc1C)C(=O)c1ccc(N2CCCC2=O)cc1,inactive: -5.36%,
O=C(CSc1ccc2nc(-c3ccccc3)cn2n1)Nc1ccccc1C(F)(F)F,,"inconclusive [inhibitor, single point]"
COc1cc(CNC(=O)CCCC(=O)c2ccccc2)cc(OC)c1OC,,"inconclusive [inhibitor, single point]"
O=C(Nc1ccccc1)c1cc(-c2ccccc2Cl)no1,,active: 16.4 µM
CCOC(=O)c1cc(C#N)c(Oc2ccccc2)nc1-c1ccccc1,,"inconclusive [inhibitor, single point]"
Cc1cccc(NC(=O)Cn2nc(-c3ccc(Cl)cc3)c3ccccc3c2=O)c1,,"inconclusive [inhibitor, single point]"
COc1ccccc1CNC(=O)c1cccn1-c1nnc(N2CCCC2)s1,,"inconclusive [inhibitor, single point]"
CC(C)NC(=O)C1CC(=O)N(c2ccc(F)c(Cl)c2)C1 (stereo not given),inactive: -0.495%,
Cc1ccc(-n2c(SCc3ccccc3F)nc3[nH]ncc3c2=O)cc1C,,"inconclusive [inhibitor, single point]"
O/N=C1\CCCc2ccc(Cl)cc21,inactive: -28.2%,
CC(Cc1cccs1)NC(=O)Nc1ccccc1 (stereo not given),inactive: -8.93%,
CN(C)c1ccc(/C=C/c2ccnc3ccccc23)cc1[N+](=O)[O-],inactive: -11.1%,
CCOc1cccc2cc(-c3nc4sc(C(=O)Nc5ccc(C)cc5)c(C)c4c(=O)[nH]3)c(=O)oc12,inactive: -7.35%,
COc1cc(/C=C(\CCC(=O)O)c2nc3ccccc3s2)ccc1OCC(=O)Nc1c(Cl)cccc1Cl,,"inconclusive [inhibitor, single point]"

SMILES,"activity change, negative = growth inhibition",Potency
Oc1c(C(Nc2nccs2)c2ccc(C(F)(F)F)cc2)ccc2cccnc12 (stereo not given),,"inconclusive [inhibitor, single point]"
Cc1cccc(NC(=O)C(=O)c2cc(C)n(-c3ccccc3)c2C)c1C,,"inconclusive [inhibitor, single point]"
Cc1ccc(S(=O)(=O)N2C[C@H]3C(=O)C[C@@H](c4ccc(Cl)cc4)N(S(=O)(=O)c4ccccc4C)[C@H]3C[C@H]2c2ccccc2)cc1,,"inconclusive [inhibitor, single point]"
O=C(Nc1cccc(-c2nc3ncccc3o2)c1)c1ccc(-c2cccc(Cl)c2Cl)o1,,active: 6.51 µM
COc1ccc(NC(=O)/C=C/c2ccc(OC(F)F)cc2)cn1,,"inconclusive [inhibitor, single point]"
CCCCOCCCNC(=O)c1ccc2c(c1)OCO2,,"inconclusive [inhibitor, single point]"
COc1ccc(N2CCN(C(=O)C3CCCN(S(=O)(=O)c4ccc(F)cc4)C3)CC2)cc1 (stereo not given),,active: 8.2 µM
O=C(NCCc1ccc2c(c1)OCCO2)c1cc(S(=O)(=O)N2CCCC2)ccc1Cl,,"inconclusive [inhibitor, partial curve]"
CCC(=O)Nc1cc(-c2nn(C)c(=O)c3ccccc23)ccc1N1CCCCC1,,"inconclusive [inhibitor, single point]"
COc1ccc(C(CNC(=O)COc2ccc(F)cc2Cl)N2CCOCC2)cc1 (stereo not given),,"inconclusive [inhibitor, single point]"
COc1ccc([C@H]2CC(=O)C=C(c3cccc(Cl)c3)C2)cc1,,"inconclusive [inhibitor, partial curve]"
COc1cccc(/C=C/C(=C2\C(=O)N(c3ccccc3)N=C2C)c2ccc(Br)cc2)c1OC,,"inconclusive [inhibitor, partial curve, poor fit]"
O=C(NCC1CCCO1)c1ccc2nc(N3CCCCC3)sc2c1 (stereo not given),,"inconclusive [inhibitor, single point]"
CN(C1CCCCC1)S(=O)(=O)c1ccc(C(=O)Nc2sc3c(c2C(N)=O)CC(C)(C)NC3(C)C)cc1,,"inconclusive [inhibitor, full curve]"
O=C(C[C@H]1C/C=C\C[C@H](NC(=O)OCC2c3ccccc3-c3ccccc32)C(=O)OC[C@H](Cc2ccccc2)NC1=O)N[C@H](CO)Cc1ccccc1,,active: 5.17 µM
COc1ccc(N2CCN(C(=O)CSCc3nc(-c4ccccc4Cl)oc3C)CC2)cc1,,active: 16.4 µM
CC1CN(C(=O)c2ccccc2OCc2ccccc2Cl)CC(C)O1 (stereo not given),,"inconclusive [inhibitor, partial curve, poor fit]"
CSCCC(NC(=O)c1cccc([N+](=O)[O-])c1)C(=O)OCC(=O)N1CCCC1=O (stereo not given),inactive: -0.916%,
CN(c1cccc(NC(=O)COc2ccc(Cl)cc2Cl)c1)S(C)(=O)=O,,"inconclusive [inhibitor, single point]"
COc1cccc(C(=O)Nc2ccc(C(=O)NCC(C)C)cc2)c1,,"inconclusive [inhibitor, single point]"
CC(=O)c1cc(-c2ccccc2)n(CC(=O)NC2CCCCCC2)c1C,,"inconclusive [inhibitor, single point]"
COc1cc(C(O)c2nc(-c3ccc(F)c(Cl)c3)cs2)ccc1F (stereo not given),,"inconclusive [inhibitor, single point]"
